This is one part of the list.
Key:
Assay in all cases: glycan array binding signal (z-score within array); higher = stronger binding
Details in all cases: glycan notation: IUPAC condensed, linker removed
[1] = molecular target: Gal(b1-3)GalNAc(b1-3)Gal(a1-4)Gal(b1-4)Glc
Summary of the method: (§1)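 Glycan array binding is given as a within-array Z-score, which can be read as non-binding when negative. The arrays, 3228 of them, came from the Consortium for Functional Glycomics database and were retained only where the protein sequence was available. Z-scores were averaged across arrays of the same protein sequence at different concentrations or buffers and across linkers.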

[2] = molecular target: Gal(b1-3)GalNAc(b1-4)Gal(b1-4)Glc
Summary of the method: as §1

[3] = molecular target: Gal(b1-3)GalNAc(b1-4)[Neu5Ac(a2-3)]Gal(b1-4)Glc
Summary of the method: as §1

Gal(b1-3)GlcNAc = molecular target: Gal(b1-3)GlcNAc
Summary of the method: as §1

[4] = molecular target: Gal(b1-3)GlcNAc(a1-3)Gal(b1-4)GlcNAc
Summary of the method: as §1

[5] = molecular target: Gal(b1-3)GlcNAc(a1-6)Gal(b1-4)GlcNAc
Summary of the method: as §1

Gal(b1-3)GlcNAc(b1-2)Man = molecular target: Gal(b1-3)GlcNAc(b1-2)Man
Summary of the method: as §1

[6] = molecular target: Gal(b1-3)GlcNAc(b1-2)Man(a1-3)[Gal(b1-3)GlcNAc(b1-2)Man(a1-6)]Man(b1-4)GlcNAc(b1-4)GlcNAc
Summary of the method: as §1

[7] = molecular target: Gal(b1-3)GlcNAc(b1-2)Man(a1-3)[Gal(b1-3)GlcNAc(b1-2)Man(a1-6)]Man(b1-4)GlcNAc(b1-4)[Fuc(a1-6)]GlcNAc
Summary of the method: as §1

[8] = molecular target: Gal(b1-3)GlcNAc(b1-2)Man(a1-3)[GlcNAc(b1-4)][Gal(b1-3)GlcNAc(b1-2)Man(a1-6)]Man(b1-4)GlcNAc(b1-4)GlcNAc
Summary of the method: as §1

[9] = molecular target: Gal(b1-3)GlcNAc(b1-2)[Gal(b1-3)GlcNAc(b1-6)]Man(a1-6)[Gal(b1-3)GlcNAc(b1-2)Man(a1-3)]Man(b1-4)GlcNAc(b1-4)GlcNAc
Summary of the method: as §1

[10] = molecular target: Gal(b1-3)GlcNAc(b1-3)Gal(b1-3)GlcNAc
Summary of the method: as §1

[11] = molecular target: Gal(b1-3)GlcNAc(b1-3)Gal(b1-4)Glc
Summary of the method: as §1

[12] = molecular target: Gal(b1-3)GlcNAc(b1-3)Gal(b1-4)GlcNAc
Summary of the method: as §1

[13] = molecular target: Gal(b1-3)GlcNAc(b1-3)Gal(b1-4)GlcNAc(b1-2)Man(a1-3)[Gal(b1-3)GlcNAc(b1-3)Gal(b1-4)GlcNAc(b1-2)Man(a1-6)]Man(b1-4)GlcNAc(b1-4)GlcNAc
Summary of the method: as §1

[14] = molecular target: Gal(b1-3)GlcNAc(b1-3)Gal(b1-4)GlcNAc(b1-2)[Gal(b1-3)GlcNAc(b1-3)Gal(b1-4)GlcNAc(b1-6)]Man(a1-6)[Gal(b1-3)GlcNAc(b1-3)Gal(b1-4)GlcNAc(b1-2)Man(a1-3)]Man(b1-4)GlcNAc(b1-4)[Fuc(a1-6)]GlcNAc
Summary of the method: as §1

[15] = molecular target: Gal(b1-3)GlcNAc(b1-3)Gal(b1-4)GlcNAc(b1-3)Gal(b1-4)GlcNAc(b1-2)[Gal(b1-3)GlcNAc(b1-3)Gal(b1-4)GlcNAc(b1-3)Gal(b1-4)GlcNAc(b1-6)]Man(a1-6)[Gal(b1-3)GlcNAc(b1-3)Gal(b1-4)GlcNAc(b1-3)Gal(b1-4)GlcNAc(b1-2)Man(a1-3)]Man(b1-4)GlcNAc(b1-4)[Fuc(a1-6)]GlcNAc
Summary of the method: as §1

[16] = molecular target: Gal(b1-3)GlcNAc(b1-3)Gal(b1-4)GlcNAc(b1-6)[Gal(b1-3)GlcNAc(b1-3)]Gal(b1-4)Glc
Summary of the method: as §1

[17] = molecular target: Gal(b1-3)GlcNAc(b1-3)Gal(b1-4)[Fuc(a1-3)]GlcNAc
Summary of the method: as §1

[18] = molecular target: Gal(b1-3)GlcNAc(b1-3)Gal(b1-4)[Fuc(a1-3)]GlcNAc(b1-6)[Gal(b1-3)GlcNAc(b1-3)]Gal(b1-4)Glc
Summary of the method: as §1

[19] = molecular target: Gal(b1-3)GlcNAc(b1-3)GalNAc
Summary of the method: as §1

[20] = molecular target: Gal(b1-3)GlcNAc(b1-6)Gal(b1-4)GlcNAc
Summary of the method: as §1

[21] = molecular target: Gal(b1-3)GlcNAc(b1-6)GalNAc
Summary of the method: as §1

[22] = molecular target: Gal(b1-3)GlcNAc(b1-6)[Gal(b1-3)]GalNAc
Summary of the method: as §1

Gal(b1-3)GlcNAc6S = molecular target: Gal(b1-3)GlcNAc6S
Summary of the method: as §1

[23] = molecular target: Gal(b1-3)[Fuc(a1-4)]GlcNAc
Summary of the method: as §1

[24] = molecular target: Gal(b1-3)[Fuc(a1-4)]GlcNAc(b1-2)Man
Summary of the method: as §1

[25] = molecular target: Gal(b1-3)[Fuc(a1-4)]GlcNAc(b1-2)Man(a1-3)[Gal(b1-3)[Fuc(a1-4)]GlcNAc(b1-2)Man(a1-6)]Man(b1-4)GlcNAc(b1-4)[Fuc(a1-6)]GlcNAc
Summary of the method: as §1

[26] = molecular target: Gal(b1-3)[Fuc(a1-4)]GlcNAc(b1-3)Gal(b1-3)[Fuc(a1-4)]GlcNAc
Summary of the method: as §1

[27] = molecular target: Gal(b1-3)[Fuc(a1-4)]GlcNAc(b1-3)Gal(b1-4)[Fuc(a1-3)]GlcNAc
Summary of the method: as §1

[28] = molecular target: Gal(b1-3)[Fuc(a1-4)]GlcNAc(b1-6)GalNAc
Summary of the method: as §1

[29] = molecular target: Gal(b1-3)[GlcNAc(b1-6)]GalNAc
Summary of the method: as §1

[30] = molecular target: Gal(b1-3)[Neu5Ac(a2-6)]GalNAc
Summary of the method: as §1

[31] = molecular target: Gal(b1-3)[Neu5Ac(a2-6)]GlcNAc(b1-4)Gal(b1-4)Glc
Summary of the method: as §1

[32] = molecular target: Gal(b1-3)[Neu5Ac(b2-6)]GalNAc
Summary of the method: as §1

Gal(b1-4)Gal = molecular target: Gal(b1-4)Gal
Summary of the method: as §1

[33] = molecular target: Gal(b1-4)GalNAc(a1-3)[Fuc(a1-2)]Gal(b1-4)GlcNAc
Summary of the method: as §1

[34] = molecular target: Gal(b1-4)GalNAc(b1-3)[Fuc(a1-2)]Gal(b1-4)GlcNAc
Summary of the method: as §1

B1: PX14379A-bvu-539-28-539 (Bacteroides vulgatus) (protein)
chain: EPYSEIIEEDYVPTEADEIALLATTYSQLRFVMDWYGLFDLQEESGDVIVTPTRPNGWDDGGTYKQMHKHTWDNQQGQPQSIWDYCYKGIANANKILKRADEGFFTEESKPKVVAEVKGVRALWYSILCDTHGNIPIQTSFSEEVPVQSTRKQVFDFIINELKEVMPNLPTEVNKSTYGRLTQWGAKCLMARMYLNAGVYTGTPMWNECLEQCNDIINSGLFSLETNYTDIFKTENSGCVETIFAIPYDEVYNEGDNNGPVFGAHMKFLSSNSRKVFNMQTTPWGGSAANPQFINSYDPDDMRLKYTWLQGDQYSPDGVLITTFPNKLPSIYKTDTDDGYRVGKYEIKVGAKSLLSNDFPYFRYTEVLLMKAECLLRLGQNETEAAHIVSQIRERAFRESAHPEKATVDAAWLKGDTHINYGTLDEKGQIDDAGNTEVVELGGLYDEWGWEFAAEARRRTDMIRFGTYQKKSWFNHTPTANDLNGNSILFPIHLDHLNTNPNLQQNPGYAGK
In the case of B1, the “glycan array binding signal (z-score)” value [1] is reported as -0.318, the “glycan array binding signal (z-score)” value [2] is reported as 0.199 and the “glycan array binding signal (z-score)” value [3] is reported as -0.503. The “glycan array binding signal (z-score)” value (Gal(b1-3)GlcNAc) was -0.23, the “glycan array binding signal (z-score)” value [4] was -0.463 and the “glycan array binding signal (z-score)” value [5] was 0.75. For the same binder, the “glycan array binding signal (z-score)” value (Gal(b1-3)GlcNAc(b1-2)Man) was 0.056, the “glycan array binding signal (z-score)” value [6] was 0.258 and the “glycan array binding signal (z-score)” value [7] was 0.386. The “glycan array binding signal (z-score)” value [8] was 0.411, the “glycan array binding signal (z-score)” value [9] was 5.87 and the “glycan array binding signal (z-score)” value [10] was 0.03. For the same binder, the “glycan array binding signal (z-score)” value [11] was -0.39, the “glycan array binding signal (z-score)” value [12] was -0.069 and the “glycan array binding signal (z-score)” value [13] was 0.904. The “glycan array binding signal (z-score)” value [14] was 0.394, the “glycan array binding signal (z-score)” value [15] was 1.51 and the “glycan array binding signal (z-score)” value [16] was -0.363. The “glycan array binding signal (z-score)” value [17] was -0.515, the “glycan array binding signal (z-score)” value [18] was -0.153 and the “glycan array binding signal (z-score)” value [19] was -0.165. The “glycan array binding signal (z-score)” value [20] was -0.27, the “glycan array binding signal (z-score)” value [21] was -0.344 and the “glycan array binding signal (z-score)” value [22] was 1.75. The “glycan array binding signal (z-score)” value (Gal(b1-3)GlcNAc6S) was 0.002, the “glycan array binding signal (z-score)” value [23] was -0.374 and the “glycan array binding signal (z-score)” value [24] was -0.391. For the same binder, the “glycan array binding signal (z-score)” value [25] was 0.335, the “glycan array binding signal (z-score)” value [26] was -0.467 and the “glycan array binding signal (z-score)” value [27] was 0.155. For the same binder, the “glycan array binding signal (z-score)” value [28] was -0.234, the “glycan array binding signal (z-score)” value [29] was -0.091 and the “glycan array binding signal (z-score)” value [30] was -0.369. The “glycan array binding signal (z-score)” value [31] was -0.375, the “glycan array binding signal (z-score)” value [32] was -0.413 and the “glycan array binding signal (z-score)” value (Gal(b1-4)Gal) was -0.314. For the same binder, the “glycan array binding signal (z-score)” value [33] was -0.278 and the “glycan array binding signal (z-score)” value [34] was 0.182.
